Data as given in patent publication EP2161029A1, “Composition comprising peptides” (Unilever N.V., priority 2008, dated 2010).
Not every detail of the peptide structures is certain; ends, links or a residue may be inferred. Some compounds share one wording; it may come from a single statement. Peptide text beside a SMILES is read from it.

Test system: ACE
Assay: ACE inhibition, HPLC-UV at-line assay with substrate HHL
Assay type: biochemical
Conditions: for residual ACE activity (in % of control): substrate Hippuryl-His-Leu, at-line HPLC-UV assay, mean; for ACE inhibitory activity (in words): in vitro and in silico

| Structure (SMILES) | residual ACE activity (in % of control) (20 µM dipeptide) | residual ACE activity (in % of control) (200 µM dipeptide) | ACE inhibitory activity (in words) | IC50 (6 different peptide concentrations, HHL as substrate, read-out: IC50) |
| --- | --- | --- | --- | --- |
| N[C@@H](CCC(=O)O)C(=O)N[C@@H](CO)C(=O)O [ES] (H-Glu-Ser-OH) | 64.9 % of control | 80.05 % of control |  |  |
| CC(C)[C@H](NC(=O)[C@@H](N)CCC(=O)O)C(=O)O [EV] (H-Glu-Val-OH) | 70.1 % of control | 78.70 % of control |  |  |
| N[C@@H](CCC(=O)O)C(=O)N[C@@H](Cc1c[nH]c2ccccc12)C(=O)O [EW] (H-Glu-Trp-OH) | 34.1 % of control | 20.30 % of control |  |  |
| N[C@@H](Cc1ccccc1)C(=O)N[C@@H](CS)C(=O)O [FC] (H-Phe-Cys-OH) | 100.0 % of control | 83.00 % of control |  |  |
| N[C@@H](Cc1ccccc1)C(=O)N[C@@H](CC(=O)O)C(=O)O [FD] (H-Phe-Asp-OH) | 98.0 % of control | 100.00 % of control |  |  |
| N[C@@H](Cc1ccccc1)C(=O)N[C@@H](Cc1ccccc1)C(=O)O [FF] (H-Phe-Phe-OH) | 92.9 % of control | 81.90 % of control |  |  |
| N[C@@H](Cc1ccccc1)C(=O)N[C@@H](Cc1c[nH]cn1)C(=O)O [FH] (H-Phe-His-OH) | 100.0 % of control | 77.00 % of control |  |  |
| NCCCC[C@H](NC(=O)[C@@H](N)Cc1ccccc1)C(=O)O [FK] | 83.4 % of control | 87.00 % of control |  |  |
| CSCC[C@H](NC(=O)[C@@H](N)Cc1ccccc1)C(=O)O [FM] (H-Phe-Met-OH) | 100.0 % of control | 86.00 % of control |  |  |
| NC(=O)C[C@H](NC(=O)[C@@H](N)Cc1ccccc1)C(=O)O [FN] (H-Phe-Asn-OH) | 100.0 % of control | 100.00 % of control |  |  |
| NC(=O)CC[C@H](NC(=O)[C@@H](N)Cc1ccccc1)C(=O)O [FQ] | 100.0 % of control | 92.50 % of control |  |  |
| N=C(N)NCCC[C@H](NC(=O)[C@@H](N)Cc1ccccc1)C(=O)O [FR] (H-Phe-Arg-OH) | 99.3 % of control | 70.30 % of control |  |  |
| N[C@@H](Cc1ccccc1)C(=O)N[C@@H](CO)C(=O)O [FS] (H-Phe-Ser-OH) | 100.0 % of control | 88.80 % of control |  |  |
| C[C@@H](O)[C@H](NC(=O)[C@@H](N)Cc1ccccc1)C(=O)O [FT] | 98.9 % of control | 100.00 % of control |  |  |
| CC(C)[C@H](NC(=O)[C@@H](N)Cc1ccccc1)C(=O)O [FV] (H-Phe-Val-OH) | 100.0 % of control | 100.00 % of control |  |  |
| N[C@@H](Cc1ccccc1)C(=O)N[C@@H](Cc1c[nH]c2ccccc12)C(=O)O [FW] (H-Phe-Trp-OH) | 99.0 % of control | 55.50 % of control |  |  |
| N[C@@H](Cc1ccccc1)C(=O)N[C@@H](Cc1ccc(O)cc1)C(=O)O [FY] (H-Phe-Tyr-OH) | 93.5 % of control | 48.30 % of control |  |  |
| NCC(=O)N[C@@H](CS)C(=O)O [GC] (H-Gly-Cys-OH) |  |  | ACE inhibitory activity |  |
| NCC(=O)N[C@@H](CCC(=O)O)C(=O)O [GE] (H-Gly-Glu-OH) | 61.9 % of control | 56.80 % of control |  |  |
| NCC(=O)N[C@@H](Cc1ccccc1)C(=O)O [GF] (H-Gly-Phe-OH) | 58.4 % of control | 50.20 % of control |  |  |
| CC[C@H](C)[C@H](NC(=O)CN)C(=O)O [GI, Gly-Ile] (H-Gly-Ile-OH) | 57.4 % of control | 39.20 % of control |  |  |
| NCCCC[C@H](NC(=O)CN)C(=O)O [GK] (H-Gly-Lys-OH) | 50.7 % of control | 41.25 % of control |  |  |
| CSCC[C@H](NC(=O)CN)C(=O)O [GM] | 55.1 % of control | 49.25 % of control |  |  |
| NCC(=O)N[C@@H](CC(N)=O)C(=O)O [GN] (H-Gly-Asn-OH) | 55.0 % of control | 47.95 % of control | ACE inhibitory activity |  |
| NCC(=O)N1CCC[C@H]1C(=O)O [GP, Gly-Pro] (H-Gly-Pro-OH) | 63.7 % of control | 28.65 % of control |  | 717 ± 67 µM |
| NCC(=O)N[C@@H](CCC(N)=O)C(=O)O [GQ] (H-Gly-Gln-OH) | 52.1 % of control | 44.60 % of control |  |  |
